Laboratory results published in article PMC13193388, “Dimerization‐dependent NOTCH receptor transactivation unveils a class of highly selective NOTCH signalling inhibitors” (The Febs Journal, 2025).

Molecular target: the molecule itself
Assay: SEC-MALS; purified N3 ECD; Superdex 200 10/30 GL; 38 mM NaH2PO4, 12 mM Na2HPO4, 150 mM NaCl, 200 ppm NaN3, pH 7.4; autosampler at 4 °C

B1: purified recombinant HIS epitope-tagged NOTCH3 extracellular domain (domain or fragment)
chain: not shown
modifications: glycosylated
notes: NOTCH3, human, complete extracellular domain; written as one chain so that the self-association rows stand for chain with chain; also called N3 ECD; NOTCH3-ECD protein; source: PEC.3.30 (modified Per.E2A) cells, purified from supernatant (HisTrap HP, Superdex 200); not shown: HIS, C-terminal, kept
B1 was tested, and the “stoichiometry N” value was 2.
